Here are results for 95 molecules from PubChem BioAssay AID1159614 (National Center for Advancing Translational Sciences (NCATS), 2016).

SMILES strings stand for the structures. In all, about 45,000 compounds went through this assay and about 65 (0.1%) were called active. Calls follow the shape of the dose curve; as a rule, active = well fitted activation curve with a large enough effect; inconclusive = small, poorly fitted or top-dose-only effect; inactive = no such curve, though single readings can be large or run the other way. The list shows a part of the results.

The target in this assay is Galactocerebrosidase (Homo sapiens) (UniProt P54803). Description: A Novel Cell-Based Assay to Identify Small Molecules for B -Galactocerebrosidase. Also: 0% is about no effect; nearly all actives have a fitted effect of over 65% in size. Particulars: 145M-Twi-hGALC-G270D cells (Twitcher mouse brain line with human GALC G270D), HMU-beta-Gal fluorescence, 48 h; series mostly up to 57.5 µM; activation: at the top concentration. Put shortly: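 Brain-derived Twitcher mouse 145M-Twi cells stably expressing human GALC-G270D or wild-type GALC, treated live, then residual GALC activity read by fluorescence of HMU-b-Gal substrate (0.1 mM final) in citrate-phosphate buffer pH 5.2 with sodium taurocholate. Signal increase indicates enhancement.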
Chain of UniProt P54803 (P54803 whole entry, looked up): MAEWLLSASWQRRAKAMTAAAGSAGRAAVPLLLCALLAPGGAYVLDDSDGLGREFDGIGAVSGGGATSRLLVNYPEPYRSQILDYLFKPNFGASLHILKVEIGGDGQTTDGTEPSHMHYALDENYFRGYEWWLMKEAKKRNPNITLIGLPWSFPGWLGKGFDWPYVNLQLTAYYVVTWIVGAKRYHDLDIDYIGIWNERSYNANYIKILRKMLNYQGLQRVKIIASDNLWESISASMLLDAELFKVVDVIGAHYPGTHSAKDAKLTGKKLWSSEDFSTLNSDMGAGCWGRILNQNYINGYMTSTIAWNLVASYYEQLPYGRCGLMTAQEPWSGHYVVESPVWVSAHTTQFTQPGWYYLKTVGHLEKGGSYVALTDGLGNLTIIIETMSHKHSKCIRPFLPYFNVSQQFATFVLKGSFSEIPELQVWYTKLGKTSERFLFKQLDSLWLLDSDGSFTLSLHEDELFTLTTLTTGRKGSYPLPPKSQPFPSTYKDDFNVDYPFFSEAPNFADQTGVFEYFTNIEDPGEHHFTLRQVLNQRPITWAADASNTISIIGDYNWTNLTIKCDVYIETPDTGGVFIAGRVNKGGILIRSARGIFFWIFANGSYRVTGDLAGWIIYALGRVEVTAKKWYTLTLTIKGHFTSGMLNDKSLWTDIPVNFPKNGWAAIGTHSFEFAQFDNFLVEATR
Consider `CCOC(=O)c1ccc(CN(Cc2ccccc2)S(=O)(=O)c2ccc(C)cc2)cc1`, for which the “activation” value was inactive: -5.61%.

As to `COc1ccc(CCC(=O)NC2CC(=O)N(c3ccc(C)cc3)C2)cc1` (stereo not given), the “activation” value was inactive: -7.52%.

`CCCCOC(=O)c1ccc(Nc2ncnc3[nH]ncc23)cc1`: the “activation” value was inactive: -21.5%. In the case of `Cc1cccc(C(=O)Nc2ccc(-c3nc4ccccc4s3)cc2Cl)c1` it was inactive: -14.3%; in that of `COc1ccc2oc(=O)cc(CN3CCN(c4ccc(F)cc4)CC3)c2c1`, inactive: -39.7%.

`CCCCNC(=O)C(CC)Sc1nnc(-c2cccc(F)c2)c(-c2cccc(F)c2)n1` (stereo not given): the “activation” value was inactive: -7.59%. For `Cc1ccccc1S(=O)Cc1ccc(C(=O)N2CCN(c3cccc(C)c3C)CC2)o1` (stereo not given), the “activation” value is inactive: -8.09%. `Cc1ccc2onc(CC(=O)N3CCN(c4ccc(F)cc4)CC3)c2c1`: the “activation” value is inactive: -8.13%. The value for `CC(C)CC(=O)N1c2nc(C(C)C)nn2C2(CCCCC2)[C@@H]2CCCC[C@@H]21` was inactive: -11.7%.

`Cc1ccc(-c2c(CN3CCN(c4cccc(C)c4)C(C)C3)csc2C)cc1` (stereo not given): the “activation” value was inactive: -10.8%.

With `Cc1cc(C)c(NC(=O)Cn2cc(S(=O)(=O)Cc3ccccc3F)c3ccccc32)c(C)c1`, the “activation” value is inactive: -0.167%. Turning to `Cc1c(Cl)cccc1NC(=O)CSc1ncc2c(n1)-c1ccccc1N(C)S2(=O)=O`, the “activation” value is inactive: -8.35%. Regarding `CN(CCCNC(=O)c1cc2c(Cl)nc3ccccc3c2s1)Cc1ccccc1`, the “activation” value was inactive: -19.2%. In the case of `CCOc1ccc(CCNC(=O)c2cnc3sc(N(CC)CC)nn3c2=O)cc1OCC` it was inactive: 8.55%. Take `Cc1cccc(C)c1OCC(=O)Nc1ncn[nH]1`: the “activation” value was inactive: -14.8%. For the molecule `CCN(CC)CCNC(=O)c1c(C)oc2ncnc(N3CCOCC3)c12`, the “activation” value is inactive: -3.56%. Take `COC(=O)/C=C\C(=O)OC`: the “activation” value is inactive: -11.1%. The value for `COC(=O)c1c(NC(=O)c2cc3ccccc3c(=O)o2)sc2c1CCCC2` was inactive: -18.2%. In the case of `O=C(NCCc1ccccc1)c1ccc2c(c1)N(Cc1ccc(F)cc1)C(=O)c1ccccc1S2(=O)=O` it was inactive: -8.35%; in that of `CC(C)c1ccc(NC(=O)c2cc3sc(Cl)cc3n2C)cc1`, inactive: -4.06%; in that of `Cc1cccc(N(CC(O)Cn2c3ccccc3c3ccccc32)S(=O)(=O)c2ccc(F)cc2)c1` (stereo not given), inactive: -13.7%. For `COc1ccc(CCNC(=O)c2ccc(Nc3nc4ccccc4n4nnnc34)cc2)cc1OC`, the “activation” value was inactive: 2.36%. For the molecule `CC(=O)c1cccc(NC(=O)C(C)n2c(=O)cc(C)c3c(C)nn(-c4ccccc4)c32)c1` (stereo not given), the “activation” value is inactive: -15.5%. As for `COc1ccc(NC(=O)Cn2nnc(C(=O)NCCc3ccccc3)c2N)cc1`, the “activation” value is inactive: -10%. Turning to `COc1ccccc1NC(=O)N(Cc1nnc2n1CCCCC2)c1ccc(F)cc1`, the “activation” value is inactive: -9.57%.

With `COc1ccc(OC)c(CNS(=O)(=O)c2ccc3c(c2)CCCN3C(C)=O)c1`, the “activation” value is inactive: -9.88%. For the molecule `CCOc1ccc(NC(=O)c2c(NCc3cccnc3)sc3c2CCCC3)cc1`, the “activation” value was inactive: -11.9%. For `O=S(=O)(Nc1ccc(Br)cc1F)c1ccc2nc(-c3ccccc3)[nH]c2c1`, the “activation” value is inactive: 2.66%. Turning to `COc1cccc(N2CCN(C(=O)c3cccc(-n4c(C)nc5cccnc54)c3)CC2)c1`, the “activation” value is inactive: -15.8%. `CCOC(=O)c1ccc(CN(Cc2ccc(F)cc2)S(=O)(=O)c2ccc(F)c(C(=O)Nc3ccc(Cl)cc3F)c2)cc1`: the “activation” value was inactive: -6.77%.

As to `Cc1cc(C)cc(NC(=O)N2CCC3(CC2)Oc2ccccc2C(=O)N3Cc2ccccc2F)c1`, the “activation” value was inactive: -21%. The value for `O=C(CCS(=O)(=O)c1cccc2nonc12)Nc1c(F)cccc1F` was inactive: -21.3%; that for `CC1CCc2c(sc3nc(-c4cc5cc(Br)ccc5oc4=O)[nH]c(=O)c23)C1` (stereo not given) was inactive: -19.8%. Take `COc1ccc(-c2nnc(SCC(=O)Nc3cccc(C(F)(F)F)c3)nc2-c2ccc(OC)cc2)cc1`: the “activation” value is inactive: -5.99%.

Take `COc1ccc(CCn2c(=O)c3cccnc3n(CC(=O)Nc3ccc(C)c(F)c3)c2=O)cc1OC`: the “activation” value was inactive: -20.3%. In the case of `C=Cc1ccc(Cn2c(C(=O)O)c(CNC3CCCCC3)c3ccc(C)cc32)cc1` it was inactive: -1.01%; in that of `O=C(COc1ccccc1)NCCc1csc(-c2ccc(Cl)cc2)n1`, inactive: -5.57%; in that of `COc1cccc(Cn2c(CNS(=O)(=O)c3ccc(F)c(Cl)c3)nc3cccnc32)c1`, inactive: -0.664%. The value for `O=C(c1ccc2c(c1)OCCO2)N(Cc1cccnc1)c1nc2c(Cl)cccc2s1` was inactive: -33.5%; that for `CCOc1ccc(OCC)c(NC(=O)C2CCN(S(=O)(=O)c3c(C)noc3/C=C/c3ccccc3F)CC2)c1` was inactive: -3.74%. For the molecule `CC(C)COc1ccc(C(=O)Nc2cc3nn(-c4ccccc4)nc3cc2Cl)cc1`, the “activation” value was inactive: -9.32%.

For `CCc1nn2c(=O)cc(COc3ccc(/C=C(\C#N)C(=O)Nc4ccc(F)cc4)cc3OC)nc2s1`, the “activation” value was inactive: -6.32%. In the case of `CN1C(=O)Cc2cc(S(=O)(=O)N3CCN(c4ccc(Cl)cc4)CC3)ccc21` it was inactive: -13.2%. In the case of `CCOC(=O)c1[nH]c2c(c1Cc1ccccc1C)C(=O)CC(c1cc(OC)ccc1OC)C2` (stereo not given) it was inactive: -19.7%; in that of `CCOc1ccccc1CNC(=O)c1cc(-c2ccc(Cl)s2)nc2ccccc12`, inactive: -9.26%; in that of `CCOC(=O)c1ccc(NC(=O)C2CCN(S(=O)(=O)c3ccc4c(c3)CCCC(=O)N4)CC2)cc1`, inactive: -36.7%. Turning to `CCn1c2ccccc2c2nnc(SCC(=O)Nc3ccccc3OC)nc21`, the “activation” value is inactive: -2.31%. In the case of `CCc1ccc(NC(=O)Cn2c(=O)n(CCC(=O)N3CCc4ccccc4C3)c(=O)c3ccccc32)cc1`, the “activation” value is inactive: -5.84%. As to `O=S(=O)(NCC(c1cccs1)S(=O)(=O)c1ccccc1)c1ccc(F)cc1` (stereo not given), the “activation” value is inactive: -13%. In the case of `COc1ccc(C(=O)c2cn(Cc3ccccc3F)c3cc4c(cc3c2=O)OCO4)cc1`, the “activation” value was inactive: -2.54%. In the case of `O=c1cc(-c2ccccc2)n2c(SCc3ccc(Cl)cc3)nnc2[nH]1` it was inactive: -17.6%. In the case of `CCOC(=O)c1ccc(N2C(=O)c3n[nH]c(C)c3C2c2cccc(Br)c2)cc1` (stereo not given) it was inactive: -9.68%; in that of `COc1ccc(CNC(=O)Cn2nnc(-c3ccc(C(F)(F)F)cc3)n2)cc1`, inactive: -6.66%; in that of `CC(C)C(=O)NCC(c1ccc2c(c1)OCO2)N1CCN(c2ccccc2F)CC1` (stereo not given), inactive: -7.2%. In the case of `COc1ccc(-n2c3c(cc(-c4nc(-c5ccc(C)cc5)cs4)c2=O)C(=O)CC(C)(C)C3)cc1` it was inactive: -15.6%.

Consider `COc1ccccc1C(=O)Nc1ccc2oc(-c3cccc(Cl)c3Cl)nc2c1`, for which the “activation” value was inactive: 7.85%.

Regarding `COc1ccc(C2C(C(N)=O)=C(C)Nc3nc(SCc4ccccc4Cl)nn32)cc1OC` (stereo not given), the “activation” value was inactive: 18.3%.

Regarding `CCOc1ccc(C(=O)NCc2nc3cccnc3n2Cc2ccc(F)cc2)cc1OCC`, the “activation” value was inactive: -13%. In the case of `Cc1ccc2nc(N3CCC(C(=O)N4CCN(c5cccc(C)c5C)CC4)CC3)[nH]c2c1` it was inactive: 3.88%; in that of `O=c1[nH]cnc2c1ncn2[C@@H]1O[C@H](CO)[C@@H](O)[C@H]1O`, inactive: -14.1%; in that of `Cc1sc2c(c1C)c(=O)n(-c1ccc(Cl)cc1)c(=O)n2Cc1cc(=O)n2ccccc2n1`, inactive: -10.9%. In the case of `CC1CCCN(C(=O)c2cc3c(=O)n(C)c4ccccc4c3s2)C1` (stereo not given) it was inactive: -13%; in that of `O=C(NCc1ccco1)c1ccc(Cn2c(SCc3ccc(F)cc3)nc3cccnc32)cc1`, inactive: 7.22%. In the case of `Cc1ccc(CNC(=O)c2nc(SCc3ccccc3F)ncc2Cl)cc1` it was inactive: -2.99%; in that of `CCOC(=O)c1ccccc1NC(=O)CSc1nc2ccncc2[nH]1`, inactive: -13.3%; in that of `CCCN(Cc1cccs1)C(=O)Nc1ccc(OCC)cc1`, inactive: -8.22%. For `Cc1cc(C)cc(NC(=O)C(=O)NCC(c2ccc3c(c2)OCO3)N2CCN(C)CC2)c1` (stereo not given), the “activation” value was inactive: -7.09%.

With `COc1ccc(NC(=O)Cn2c(=O)c(-c3cc(C)ccc3NC(C)=O)nc3ccccc32)c(OC)c1`, the “activation” value was inactive: -5.21%. For the molecule `CCC(=O)Nc1cc(-c2cccc(C)c2)nn1-c1ccccc1`, the “activation” value was inactive: -8.85%.

Consider `COc1ccc(N2CCN(Cc3nc4c(c(=O)[nH]c(=O)n4C)n3Cc3ccc(Cl)cc3)CC2)cc1`, for which the “activation” value was inactive: 13.5%. In the case of `Cc1cccc(-c2nc(SCC(=O)N3CCc4ccccc43)c3c(=O)n(C)c(=O)n(C)c3n2)c1`, the “activation” value is inactive: -8.41%.

Turning to `CCOC(=O)CNc1nc(Oc2ccc(=O)n(C)n2)nc(N(CC)CC)n1`, the “activation” value is inactive: -17.1%. The value for `CCOc1ccc(-n2c(SCC(=O)N3CCc4ccccc43)nc3c([nH]c4ccccc43)c2=O)cc1` was inactive: -2.98%; that for `Cc1cccc(-c2nnc(SCc3cc(=O)c4cccc(Cl)c4[nH]3)n2C)c1` was inactive: -2.12%. In the case of `COc1cccc2c1ncc1c(-c3ccc(C)cc3)nn(-c3cccc([N+](=O)[O-])c3)c12` it was inactive: 4.41%. `COc1ccc(OC)c(NC(=O)c2cc(-c3ccc(Cl)s3)nc3ccccc23)c1`: the “activation” value was inactive: -12.9%. In the case of `Cc1ccc(C2CCN(C(=O)c3cnn(-c4cccc(Cl)c4)c3C3CCN(C(=O)OC(C)(C)C)CC3)C2)cc1` (stereo not given) it was inactive: -16.1%. On to `COc1ccc(NC(=O)N(CCC(C)C)C(C)c2cccs2)c(OC)c1` (stereo not given), for which the “activation” value is inactive: -16.8%.

Regarding `O=C(COc1ccccc1)NCc1ccc2c(c1)CCN2C(=O)c1ccc(Cl)cc1`, the “activation” value is inactive: -10.7%. In the case of `Cc1cc(=O)[nH]c2nnc(SCC(=O)Nc3ccc(OC(F)(F)F)cc3)n12` it was inactive: -14.2%. Consider `COc1ccc(NC(=O)CSc2nc3c([nH]c4ccccc43)c(=O)n2-c2ccccc2)c(OC)c1`, for which the “activation” value was inactive: -11.2%. The value for `COCCNc1ncnc2c1c(-c1ccccc1)cn2-c1ccc(C)c(Cl)c1` was inactive: -3.73%; that for `O=C(NCc1ccco1)c1ccc2c(c1)N(Cc1ccccc1)C(=O)c1ccccc1S2(=O)=O` was inactive: -6.18%. In the case of `NCc1nc2cccnc2n1Cc1ccccc1Cl`, the “activation” value is inactive: -10.5%. In the case of `COc1ccccc1CNC(=O)CCc1c(C)nn(-c2ccc(N3CCOCC3)nn2)c1C` it was inactive: -7.91%; in that of `Cc1ccc(CNC(=O)c2oc3c(c2C)-c2nn(Cc4ccc(Cl)cc4)cc2CC3)cc1`, inactive: -16.4%. The value for `CCN(CC)S(=O)(=O)c1ccc(NC(=O)NCc2noc3ccc(C)cc23)cc1` was inactive: -24.1%; that for `Cc1cc(S(=O)(=O)C(CNC(=O)c2ccc(OC(C)C)cc2)c2cccs2)ccc1F` (stereo not given) was inactive: 5.1%. In the case of `COc1ccc(-n2ncc3c(NC(C)(C)CO)ncnc32)cc1` it was inactive: -19.2%; in that of `CCOc1ccc(NC(=O)Cn2c3ncccc3c(=O)n2-c2ccc(CC)cc2)cc1`, inactive: -21.6%; in that of `Cc1cc(N2CCN(c3ccccc3F)CC2)n2cnnc2n1`, inactive: 2.1%. Turning to `COc1ccc(NC(=O)CCc2nc3cccnc3n2Cc2cccs2)c(OC)c1`, the “activation” value was inactive: -15.2%. As for `CCOC(=O)c1ccc(NC(=O)Nc2cccc(OCc3cc(=O)n4ccc(C)cc4n3)c2)cc1`, the “activation” value is inactive: -8.72%. In the case of `CCCCOc1ccc(NC(=O)CSc2ccc(C(=O)O)cn2)cc1` it was inactive: 0.0872%; in that of `Cc1ccc(CN2C(=O)SC(Nc3ccccc3)C2=O)cc1` (stereo not given), inactive: -4.61%.
